Assay results reported in the supplement of paper PMC8728848.
The list shows a part of the results.

Experiments:
Assay in all cases: glycan array binding signal (z-score within array); higher = stronger binding
Conditions in all cases: glycan notation: IUPAC condensed, linker removed
[1] = molecular target: Man(a1-2)Man(a1-3)[Man(a1-2)Man(a1-6)]Man(a1-6)[Man(a1-2)Man(a1-2)Man(a1-3)]Man
Method in brief: (§1)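 Glycan array data were curated from 3228 arrays in the Consortium for Functional Glycomics database and kept only where the protein sequence was available. Glycan names were converted to IUPAC-condensed notation, and columns mapping to the same glycan were averaged. The binding signal is a within-array Z-score, averaged across arrays of the same protein sequence at different concentrations or buffers and across linkers. Negative Z-scores can be read as non-binding.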

[2] = molecular target: Man(a1-2)Man(a1-3)[Man(a1-2)Man(a1-6)]Man(a1-6)[Man(a1-2)Man(a1-2)Man(a1-3)]Man(b1-4)GlcNAc(b1-4)GlcNAc
Method in brief: as §1

[3] = molecular target: Man(a1-2)Man(a1-3)[Man(a1-6)]Man(a1-6)[Man(a1-2)Man(a1-3)]Man(b1-4)GlcNAc(b1-4)GlcNAc
Method in brief: as §1

[4] = molecular target: Man(a1-2)Man(a1-6)[Man(a1-3)]Man(a1-6)[Man(a1-2)Man(a1-2)Man(a1-3)]Man
Method in brief: as §1

[5] = molecular target: Man(a1-2)Man(a1-6)[Man(a1-3)]Man(a1-6)[Man(a1-2)Man(a1-2)Man(a1-3)]Man(b1-4)GlcNAc(b1-4)GlcNAc
Method in brief: as §1

Man(a1-3)[Man(a1-6)]Man = molecular target: Man(a1-3)[Man(a1-6)]Man
Method in brief: as §1

[6] = molecular target: Man(a1-3)[Man(a1-6)]Man(a1-6)[Man(a1-2)Man(a1-3)]Man(b1-4)GlcNAc(b1-4)GlcNAc
Method in brief: as §1

[7] = molecular target: Man(a1-3)[Man(a1-6)]Man(a1-6)[Man(a1-3)]Man
Method in brief: as §1

[8] = molecular target: Man(a1-3)[Man(a1-6)]Man(a1-6)[Man(a1-3)]Man(b1-4)GlcNAc(b1-4)GlcNAc
Method in brief: as §1

[9] = molecular target: Man(a1-3)[Man(a1-6)]Man(b1-4)GlcNAc(b1-4)GlcNAc
Method in brief: as §1

[10] = molecular target: Man(a1-3)[Man(a1-6)]Man(b1-4)GlcNAc(b1-4)[Fuc(a1-6)]GlcNAc
Method in brief: as §1

Man(a1-6)Man = molecular target: Man(a1-6)Man
Method in brief: as §1

Man(b1-4)GlcNAc = molecular target: Man(b1-4)GlcNAc
Method in brief: as §1

MurNAc(b1-4)GlcNAc = molecular target: MurNAc(b1-4)GlcNAc
Method in brief: as §1

Neu5Ac(a2-3)Gal = molecular target: Neu5Ac(a2-3)Gal
Method in brief: as §1

[11] = molecular target: Neu5Ac(a2-3)Gal(b1-3)GalNAc
Method in brief: as §1

[12] = molecular target: Neu5Ac(a2-3)Gal(b1-3)GalNAc(b1-3)Gal(a1-4)Gal(b1-4)Glc
Method in brief: as §1

[13] = molecular target: Neu5Ac(a2-3)Gal(b1-3)GalNAc(b1-4)[Neu5Ac(a2-3)]Gal(b1-4)Glc
Method in brief: as §1

[14] = molecular target: Neu5Ac(a2-3)Gal(b1-3)GalNAc(b1-4)[Neu5Ac(a2-8)Neu5Ac(a2-3)]Gal(b1-4)Glc
Method in brief: as §1

[15] = molecular target: Neu5Ac(a2-3)Gal(b1-3)GalNAc6S
Method in brief: as §1

[16] = molecular target: Neu5Ac(a2-3)Gal(b1-3)GlcNAc
Method in brief: as §1

[17] = molecular target: Neu5Ac(a2-3)Gal(b1-3)GlcNAc(b1-2)Man
Method in brief: as §1

[18] = molecular target: Neu5Ac(a2-3)Gal(b1-3)GlcNAc(b1-2)Man(a1-3)[GlcNAc(b1-4)][Neu5Ac(a2-3)Gal(b1-3)GlcNAc(b1-2)Man(a1-6)]Man(b1-4)GlcNAc(b1-4)GlcNAc
Method in brief: as §1

[19] = molecular target: Neu5Ac(a2-3)Gal(b1-3)GlcNAc(b1-2)Man(a1-3)[Neu5Ac(a2-3)Gal(b1-3)GlcNAc(b1-2)Man(a1-6)]Man(b1-4)GlcNAc(b1-4)GlcNAc
Method in brief: as §1

[20] = molecular target: Neu5Ac(a2-3)Gal(b1-3)GlcNAc(b1-3)Gal(b1-3)GlcNAc
Method in brief: as §1

[21] = molecular target: Neu5Ac(a2-3)Gal(b1-3)GlcNAc(b1-3)Gal(b1-4)GlcNAc
Method in brief: as §1

[22] = molecular target: Neu5Ac(a2-3)Gal(b1-3)GlcNAc(b1-3)GalNAc
Method in brief: as §1

[23] = molecular target: Neu5Ac(a2-3)Gal(b1-3)GlcNAc(b1-4)Gal(b1-4)Glc
Method in brief: as §1

[24] = molecular target: Neu5Ac(a2-3)Gal(b1-3)GlcNAc(b1-6)GalNAc
Method in brief: as §1

[25] = molecular target: Neu5Ac(a2-3)Gal(b1-3)GlcNAc6S
Method in brief: as §1

[26] = molecular target: Neu5Ac(a2-3)Gal(b1-3)[Fuc(a1-4)]GlcNAc
Method in brief: as §1

[27] = molecular target: Neu5Ac(a2-3)Gal(b1-3)[Fuc(a1-4)]GlcNAc(b1-3)Gal(b1-3)[Fuc(a1-4)]GlcNAc
Method in brief: as §1

[28] = molecular target: Neu5Ac(a2-3)Gal(b1-3)[Fuc(a1-4)]GlcNAc(b1-3)Gal(b1-4)[Fuc(a1-3)]GlcNAc
Method in brief: as §1

[29] = molecular target: Neu5Ac(a2-3)Gal(b1-3)[GlcNAc(b1-6)]GalNAc
Method in brief: as §1

[30] = molecular target: Neu5Ac(a2-3)Gal(b1-3)[Neu5Ac(a2-6)]GalNAc
Method in brief: as §1

[31] = molecular target: Neu5Ac(a2-3)Gal(b1-3)[Neu5Ac(a2-6)]GlcNAc(b1-3)[Fuc(a1-3)[Gal(b1-4)]GlcNAc(b1-6)]Gal(b1-4)Glc
Method in brief: as §1

[32] = molecular target: Neu5Ac(a2-3)Gal(b1-3)]Neu5Ac(a2-3)Gal(b1-4)]GlcNAc
Method in brief: as §1

Neu5Ac(a2-3)Gal(b1-4)Glc = molecular target: Neu5Ac(a2-3)Gal(b1-4)Glc
Method in brief: as §1

[33] = molecular target: Neu5Ac(a2-3)Gal(b1-4)GlcNAc
Method in brief: as §1

[34] = molecular target: Neu5Ac(a2-3)Gal(b1-4)GlcNAc(b1-2)Man
Method in brief: as §1

[35] = molecular target: Neu5Ac(a2-3)Gal(b1-4)GlcNAc(b1-2)Man(a1-3)[GlcNAc(b1-4)][Neu5Ac(a2-3)Gal(b1-4)GlcNAc(b1-2)Man(a1-6)]Man(b1-4)GlcNAc(b1-4)GlcNAc
Method in brief: as §1

[36] = molecular target: Neu5Ac(a2-3)Gal(b1-4)GlcNAc(b1-2)Man(a1-3)[Neu5Ac(a2-3)Gal(b1-4)GlcNAc(b1-2)Man(a1-6)]Man(b1-4)GlcNAc(b1-4)GlcNAc
Method in brief: as §1

[37] = molecular target: Neu5Ac(a2-3)Gal(b1-4)GlcNAc(b1-2)Man(a1-3)[Neu5Ac(a2-3)Gal(b1-4)GlcNAc(b1-2)Man(a1-6)]Man(b1-4)GlcNAc(b1-4)[Fuc(a1-6)]GlcNAc
Method in brief: as §1

[38] = molecular target: Neu5Ac(a2-3)Gal(b1-4)GlcNAc(b1-2)Man(a1-3)[Neu5Ac(a2-6)Gal(b1-4)GlcNAc(b1-2)Man(a1-6)]Man(b1-4)GlcNAc(b1-4)GlcNAc
Method in brief: as §1

[39] = molecular target: Neu5Ac(a2-3)Gal(b1-4)GlcNAc(b1-2)[Neu5Ac(a2-3)Gal(b1-4)GlcNAc(b1-4)]Man(a1-3)[GlcNAc(b1-4)][Neu5Ac(a2-3)Gal(b1-4)GlcNAc(b1-2)[Neu5Ac(a2-3)Gal(b1-4)GlcNAc(b1-6)]Man(a1-6)]Man(b1-4)GlcNAc(b1-4)GlcNAc
Method in brief: as §1

B1: LngA (Escherichia coli) (protein)
chain: MLSVYNRTQKFKAEARKKIAKYHELRKQRGMSLLEVIIVLGIIGTIAAGVVILAQRAFDSRAVTDLVTNTNTVRVRMKDAYQRDGKYPDFVDPLSLTANTIKTDTSGIPAAQLVQLGKITPDEVRNNISGDFIAIGGALTSNGAQVKKGFAIELNGLSQEQCRSILGQVGNNWEYVAIGTSASGSYAMTATGVDMSVAASTTVLRSLGNNGQTTLTADKILSTCTAQVNSITLGSR
In the case of B1, the “glycan array binding signal (z-score)” value [1] is reported as -0.506, the “glycan array binding signal (z-score)” value [2] is reported as 0.647 and the “glycan array binding signal (z-score)” value [3] is reported as -0.432. The “glycan array binding signal (z-score)” value [4] was -0.41, the “glycan array binding signal (z-score)” value [5] was -0.356 and the “glycan array binding signal (z-score)” value (Man(a1-3)[Man(a1-6)]Man) was -0.411. For the same binder, the “glycan array binding signal (z-score)” value [6] was -0.239, the “glycan array binding signal (z-score)” value [7] was 0.228 and the “glycan array binding signal (z-score)” value [8] was 0.079. For the same binder, the “glycan array binding signal (z-score)” value [9] was -0.323, the “glycan array binding signal (z-score)” value [10] was -0.579 and the “glycan array binding signal (z-score)” value (Man(a1-6)Man) was 3.82. The “glycan array binding signal (z-score)” value (Man(b1-4)GlcNAc) was -0.127, the “glycan array binding signal (z-score)” value (MurNAc(b1-4)GlcNAc) was -0.222 and the “glycan array binding signal (z-score)” value (Neu5Ac(a2-3)Gal) was 0.012. For the same binder, the “glycan array binding signal (z-score)” value [11] was -0.446, the “glycan array binding signal (z-score)” value [12] was -0.375 and the “glycan array binding signal (z-score)” value [13] was -0.502. For the same binder, the “glycan array binding signal (z-score)” value [14] was -0.253, the “glycan array binding signal (z-score)” value [15] was 0.48 and the “glycan array binding signal (z-score)” value [16] was -0.325. The “glycan array binding signal (z-score)” value [17] was 1.82, the “glycan array binding signal (z-score)” value [18] was -0.454 and the “glycan array binding signal (z-score)” value [19] was 1.42. For the same binder, the “glycan array binding signal (z-score)” value [20] was -0.31, the “glycan array binding signal (z-score)” value [21] was -0.496 and the “glycan array binding signal (z-score)” value [22] was -0.349. The “glycan array binding signal (z-score)” value [23] was 0.262, the “glycan array binding signal (z-score)” value [24] was -0.541 and the “glycan array binding signal (z-score)” value [25] was 0.096. For the same binder, the “glycan array binding signal (z-score)” value [26] was -0.568, the “glycan array binding signal (z-score)” value [27] was -0.302 and the “glycan array binding signal (z-score)” value [28] was -0.356. The “glycan array binding signal (z-score)” value [29] was -0.367, the “glycan array binding signal (z-score)” value [30] was -0.196 and the “glycan array binding signal (z-score)” value [31] was -0.491. The “glycan array binding signal (z-score)” value [32] was -0.173, the “glycan array binding signal (z-score)” value (Neu5Ac(a2-3)Gal(b1-4)Glc) was -0.299 and the “glycan array binding signal (z-score)” value [33] was -0.328. The “glycan array binding signal (z-score)” value [34] was 3.6, the “glycan array binding signal (z-score)” value [35] was -0.589 and the “glycan array binding signal (z-score)” value [36] was -0.485. The “glycan array binding signal (z-score)” value [37] was -0.534, the “glycan array binding signal (z-score)” value [38] was -0.503 and the “glycan array binding signal (z-score)” value [39] was -0.33.
